# In all, about 33,000 sequences were measured (“E-score (-0.5 to 0.5)”: median about -0.01, highest 2% from about 0.26 on). Some of the results follow.
# Target: Ste12 (UniProt P13574)
# Assay: PBM E-score (8-mer binding enrichment) (E-score (-0.5 to 0.5)); higher = stronger / more preferred TF binding; most listed sequences are background and not binding sites
# Conditions: protein concentration: 200 nM; construct: GST-DNA-binding domain
# Method in brief: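 Bound GST-tagged yeast transcription factors, applied at about 100-200 nM to double-stranded universal all-10-mer Agilent arrays, were detected with fluorescent anti-GST. Scans were normalised with masliner. A modified Wilcoxon-Mann-Whitney statistic, the E-score, was assigned to each ungapped eight-base word pooled with its reverse complement by the Universal PBM Analysis Suite.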
row,Sequence,PBM E-score
1,TCGTAAAA,0.279
2,CGCTGAGC,-0.154
3,CCTACGAC,-0.109
4,GACCGAAA,0.0377
5,AGTTGGGC,-0.00996
6,GGTTTTTA,0.166
7,AAGTCTCG,-0.0618
8,CAAAAGTA,0.0684
9,ACTAACTA,0.00065
10,CCGGAGGA,-0.0129
11,ATGGGCTA,0.0469
12,CCGCGGGA,0.237
13,ACCGTAAG,-0.00259
14,TCTTTTAA,0.142
15,ATGGCACA,0.0636
16,CCGTTGAG,-0.291
17,CTCTCCAA,-0.12
18,GCCGTTGA,-0.078
19,GCTTATGA,-0.0985
20,GTTGTACA,0.016
21,GGCCATGA,-0.128
22,CGACGTCC,-0.00575
23,AGACATCA,-0.00189
24,CAGGGTTA,-0.0364
25,ACTGTCAC,0.0531

row,Sequence,PBM E-score
1,AGGTGTTA,-0.0663
2,AACATTGG,0.0507
3,ACAATAAA,0.142
4,CCCGTTAA,-0.0753
5,GCTCGAGA,-0.248
6,ACGACGCT,0.0306
7,ATAGCTAC,-0.186
8,TCTGAAGA,-0.149
9,AAACAACA,0.287
10,CGATTATC,-0.0182
11,ACGCCACC,-0.0716
12,ATAATTTG,0.212
13,CCACATCG,0.0133
14,CGGGGATA,0.152
15,AAGTTGTA,0.194
16,TCTCTGCA,-0.0711
17,GTAGTGAC,-0.121
18,CGCATCCA,-0.0639
19,AGGCATTA,-0.076
20,CATCGACG,-0.0613
21,GGCTGTAA,0.0732
22,AAGGGTCG,-0.177
23,GAGAACGA,0.0582
24,CGGGGTCC,-0.168
25,AGATCTCA,0.0566

row,Sequence,PBM E-score
1,GCTCGATA,0.0716
2,CAAAGGGC,0.0737
3,ATGGGACG,-0.0447
4,CATGCTCG,-0.0627
5,AAGGCTTA,-0.127
6,AAATGGCA,-0.0228
7,GTAGTATA,0.162
8,ACGCTTGA,-0.00784
9,AGGCGCCG,0.14
10,AGTGTTAC,0.181
11,ACCGCATG,0.0572
12,AAGGCCGT,0.00388
13,ATTACCTG,-0.0682
14,CCGCAGCA,-0.0396
15,CTTTTAAA,0.255
16,ATCGGAGC,-0.176
17,ATAAGGGA,0.0929
18,CGAAGGAA,-0.0679
19,AACGTAAT,0.109
20,AGGCTCGC,-0.202
21,TCCGTTCA,-0.13
22,AGAGTACG,-0.128
23,ATTCTAAA,0.215
24,CCAGCCGC,-0.0238
25,AGATTAAA,0.19

row,Sequence,PBM E-score
1,CCATTGAC,0.0101
2,ATGTTAAT,0.126
3,GAGGGACA,-0.0534
4,GCACTGAC,-0.157
5,CCCAGACA,-0.159
6,CCACGAGA,-0.135
7,AGTCCTCC,-0.108
8,GAGGACCA,-0.255
9,TATTTGGA,0.0333
10,GGCTATGA,-0.0398
11,CATAGGAA,-0.111
12,AGAACCCA,-0.133
13,ACACCAGT,-0.153
14,ACACAAAC,0.165
15,GCCCTGGA,-0.235
16,CCCGATGC,-0.113
17,ACTATCCA,-0.144
18,AAATGGGG,0.0467
19,ATAGGACA,-0.267
20,CCACGTTA,0.164
21,ATCAATAG,0.0293
22,CTCCCTCA,-0.192
23,AACCCTTC,0.024
24,AATTCGTC,-0.0924
25,CTAGAGTA,-0.0552

row,Sequence,PBM E-score
1,AATCTAAT,-0.056
2,CGGCGGAA,0.218
3,GTGTGTTA,0.201
4,ATCCGTGC,-0.0257
5,ATGGACCA,-0.0646
6,CGCGCAAC,0.0486
7,ATGTTCCC,-0.0246
8,AACTGCAA,0.0421
9,TCAGTACA,-0.0074
10,GCCGTGCC,-0.102
11,AATACCGT,0.166
12,CTCTGACA,0.19
13,CTACGAAA,0.069
14,CATAAAGA,0.0828
15,AGCACCAC,-0.174
16,CCGCGGAA,0.139
17,CCCGGACC,0.00052
18,CACCGTGC,0.131
19,ATAGGCGC,0.083
20,CTTGAAGC,-0.00695
21,GAACTCAC,0.0195
22,CGACAATC,-0.142
23,AGGAAAGC,-0.0002
24,ACTAAAGT,-0.047
25,AGTCTTCC,-0.111

row,Sequence,PBM E-score
1,CGGATGCA,-0.0904
2,GGTGAGAC,0.179
3,GAATTTGC,-0.0621
4,CCCCGTCA,0.0491
5,ACGTATAA,-0.00789
6,ACCCCTAG,0.0358
7,ATTCCAGC,-0.0173
8,GCCCCGGA,0.118
9,GCAACCCA,-0.135
10,ACACGCAA,0.168
11,TAGGATCA,0.042
12,AACGCGAG,0.0302
13,GACACTTA,0.0701
14,GCTGCAGA,-0.0847
15,AAACACTT,0.12
16,ATGTCAAA,0.11
17,GTTATTAA,0.188
18,AACTGCAG,0.0346
19,CCAAACCA,0.0357
20,GGCGCACC,-0.217
21,AGACGTAT,0.0342
22,AGTGATCA,-0.22
23,AGAACTCA,0.117
24,ATAAAGGC,-0.053
25,ACCCGTAC,-0.266

row,Sequence,PBM E-score
1,AGGCGGGC,0.0738
2,ACATGTCA,-0.0706
3,AATTAGAA,0.26
4,CGGGTCTA,0.0075
5,AGTAGTGG,0.0657
6,ACTGACCC,-0.248
7,CTAGTCCA,-0.157
8,CCCGACCG,-0.0202
9,GAATCGGA,0.0142
10,GGCAACGA,-0.0606
11,ACGATACG,-0.259
12,CGGTCTCC,-0.251
13,CGAAGGGA,-0.114
14,CAGACACC,-0.074
15,CAAAGTGA,0.0829
16,CAACCCCA,0.181
17,AGTTTGAT,0.172
18,AGCCGCTA,-0.0154
19,CATCAGGA,0.0459
20,AGGTGTCG,-0.179
21,CTGGCCCA,-0.214
22,CAACTTAC,-0.0144
23,AGACACCC,-0.0371
24,AATCAAGC,-0.0888
25,ATAATATA,0.301

row,Sequence,PBM E-score
1,ATCACGTG,-0.0478
2,CGCTCCAG,0.0315
3,GAGTGCGC,0.0193
4,AATTAATA,0.359
5,ACTCAAAT,0.00744
6,ACAACAAC,0.177
7,GACTTAAC,-0.183
8,ACGCTGTG,-0.038
9,ATATGATA,0.271
10,TCAGAGCA,-0.0242
11,GCACGGCA,-0.00321
12,AAATTCCA,0.152
13,GGGAGGTA,0.0975
14,AAGCTTCG,0.038
15,ACTTATTC,0.0394
16,ACCCGGTC,-0.202
17,CCTCTCTC,-0.111
18,ACTGATGC,-0.0861
19,AGTGTCTG,-0.0973
20,CATAATCA,0.165
21,CCGGCTTC,0.0151
22,GAGGGTGC,-0.102
23,AAGTTGAT,0.0307
24,TCGTGCAA,0.0959
25,CGCATGAC,-0.0101

row,Sequence,PBM E-score
1,ACCTACCC,-0.00868
2,ATCTCACA,0.09
3,CCAATATC,0.135
4,GTCCGGGA,0.0647
5,ATAATTCC,0.0343
6,CCTCACGA,-0.0519
7,TGCGAAAA,0.158
8,TAACATTA,0.201
9,AGCAAAGC,0.065
10,CTCAATGA,-0.121
11,CCCCGTAG,-0.186
12,GGTTCTCA,0.0128
13,CACTTCGG,-0.124
14,AGTGGCAG,0.153
15,ATTATATG,0.149
16,CATCCAAA,0.0524
17,CGTGCGAC,-0.212
18,TAGGACCA,-0.192
19,ACCGGAAC,0.0586

# Reference: the supplement of paper PMC3334620
